# Laboratory results as given in the supplement of paper PMC8728848.
# The list shows a part of the results.
# Key:
# Test in all cases: glycan array binding signal (z-score within array); higher = stronger binding
# Settings in all cases: glycan notation: IUPAC condensed, linker removed
# [1] = target: GalNAc(b1-3)GalNAc
# How it was run: (§1)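 Glycan array data came from 3228 arrays in the Consortium for Functional Glycomics database, and only arrays with an available protein sequence were kept. Glycan names were put into IUPAC-condensed notation, and columns mapping to the same glycan were averaged. The binding signal is a within-array Z-score, averaged across arrays of one protein sequence run at different concentrations or buffers and across linkers. A negative Z-score can be read as non-binding.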
# [2] = target: GalNAc(b1-4)GlcNAc
# How it was run: as §1
# [3] = target: GalNAc(b1-4)GlcNAc(b1-2)Man(a1-3)[GalNAc(b1-4)GlcNAc(b1-2)Man(a1-6)]Man(b1-4)GlcNAc(b1-4)GlcNAc
# How it was run: as §1
# [4] = target: GalNAc(b1-6)GalNAc
# How it was run: as §1
# [5] = target: Glc(a1-4)Glc
# How it was run: as §1
# [6] = target: Glc(a1-6)Glc(a1-6)Glc
# How it was run: as §1
# [7] = target: Glc(b1-4)Glc
# How it was run: as §1
# [8] = target: Glc(b1-6)Glc
# How it was run: as §1
# [9] = target: GlcA(b1-3)Gal
# How it was run: as §1
# [10] = target: GlcA(b1-3)GlcNAc
# How it was run: as §1
# [11] = target: GlcA(b1-6)Gal
# How it was run: as §1
# [12] = target: GlcNAc(a1-3)Gal(b1-4)GlcNAc
# How it was run: as §1
# [13] = target: GlcNAc(a1-4)Gal(b1-3)GlcNAc
# How it was run: as §1
# [14] = target: GlcNAc(a1-4)Gal(b1-4)GalNAc
# How it was run: as §1
# [15] = target: GlcNAc(a1-4)Gal(b1-4)GlcNAc
# How it was run: as §1
# [16] = target: GlcNAc(a1-4)Gal(b1-4)GlcNAc(b1-3)Gal(b1-4)Glc
# How it was run: as §1
# [17] = target: GlcNAc(a1-4)Gal(b1-4)GlcNAc(b1-3)Gal(b1-4)GlcNAc
# How it was run: as §1
# [18] = target: GlcNAc(a1-4)Gal(b1-4)GlcNAc(b1-3)Gal(b1-4)GlcNAc(b1-3)Gal(b1-4)GlcNAc
# How it was run: as §1
# [19] = target: GlcNAc(a1-4)Gal(b1-4)GlcNAc(b1-3)Gal(b1-4)[Fuc(a1-3)]GlcNAc(b1-3)Gal(b1-4)[Fuc(a1-3)]GlcNAc
# How it was run: as §1
# [20] = target: GlcNAc(a1-6)Gal(b1-4)GlcNAc
# How it was run: as §1
# [21] = target: GlcNAc(b1-2)Gal(b1-3)GalNAc
# How it was run: as §1
# [22] = target: GlcNAc(b1-2)Man(a1-3)[GlcNAc(b1-2)Man(a1-6)]Man(b1-4)GlcNAc(b1-4)GlcNAc
# How it was run: as §1
# [23] = target: GlcNAc(b1-2)Man(a1-3)[GlcNAc(b1-2)Man(a1-6)]Man(b1-4)GlcNAc(b1-4)[Fuc(a1-6)]GlcNAc
# How it was run: as §1
# [24] = target: GlcNAc(b1-2)Man(a1-3)[GlcNAc(b1-4)][GlcNAc(b1-2)Man(a1-6)]Man(b1-4)GlcNAc(b1-4)GlcNAc
# How it was run: as §1
# [25] = target: GlcNAc(b1-2)[GlcNAc(b1-4)]Man(a1-3)[GlcNAc(b1-2)Man(a1-6)]Man(b1-4)GlcNAc(b1-4)GlcNAc
# How it was run: as §1
# [26] = target: GlcNAc(b1-2)[GlcNAc(b1-4)]Man(a1-3)[GlcNAc(b1-4)][GlcNAc(b1-2)Man(a1-6)]Man(b1-4)GlcNAc(b1-4)GlcNAc
# How it was run: as §1
# [27] = target: GlcNAc(b1-2)[GlcNAc(b1-4)]Man(a1-3)[GlcNAc(b1-4)][GlcNAc(b1-2)[GlcNAc(b1-6)]Man(a1-6)]Man(b1-4)GlcNAc(b1-4)GlcNAc
# How it was run: as §1
# [28] = target: GlcNAc(b1-2)[GlcNAc(b1-6)]Man(a1-6)[GlcNAc(b1-2)Man(a1-3)]Man(b1-4)GlcNAc(b1-4)GlcNAc
# How it was run: as §1
# [29] = target: GlcNAc(b1-2)[GlcNAc(b1-6)]Man(a1-6)[GlcNAc(b1-2)Man(a1-3)][GlcNAc(b1-4)]Man(b1-4)GlcNAc(b1-4)GlcNAc
# How it was run: as §1
# [30] = target: GlcNAc(b1-3)Gal
# How it was run: as §1
# [31] = target: GlcNAc(b1-3)Gal(b1-3)GalNAc
# How it was run: as §1
# [32] = target: GlcNAc(b1-3)Gal(b1-4)Glc
# How it was run: as §1
# [33] = target: GlcNAc(b1-3)Gal(b1-4)GlcNAc
# How it was run: as §1
# [34] = target: GlcNAc(b1-3)Gal(b1-4)GlcNAc(b1-3)Gal(b1-4)GlcNAc
# How it was run: as §1
# [35] = target: GlcNAc(b1-3)GalNAc
# How it was run: as §1
# [36] = target: GlcNAc(b1-3)Man
# How it was run: as §1
# [37] = target: GlcNAc(b1-3)[GlcNAc(b1-4)][GlcNAc(b1-6)]GlcNAc
# How it was run: as §1
# [38] = target: GlcNAc(b1-3)[GlcNAc(b1-6)]Gal(b1-4)GlcNAc
# How it was run: as §1
# [39] = target: GlcNAc(b1-3)[GlcNAc(b1-6)]GalNAc
# How it was run: as §1
# [40] = target: GlcNAc(b1-4)Gal(b1-4)GlcNAc
# How it was run: as §1
# [41] = target: GlcNAc(b1-4)GlcNAc
# How it was run: as §1
# [42] = target: GlcNAc(b1-4)GlcNAc(b1-4)GlcNAc
# How it was run: as §1
# [43] = target: GlcNAc(b1-4)GlcNAc(b1-4)GlcNAc(b1-4)GlcNAc(b1-4)GlcNAc
# How it was run: as §1
# [44] = target: GlcNAc(b1-4)GlcNAc(b1-4)GlcNAc(b1-4)GlcNAc(b1-4)GlcNAc(b1-4)GlcNAc
# How it was run: as §1
# [45] = target: GlcNAc(b1-4)[GlcNAc(b1-6)]GalNAc
# How it was run: as §1
binder,measurement,setting,value
"ASAL (Allium sativum), P83886 (protein) MGRTTSSPKAMMRIATVAAILTILASTCMARNVLTNGEGLYAGQSLDVEQYKFIMQDDCNLVLYEYSTPIWASNTGVTGKNGCRAVMQRDGNFVVYDVNGRPVWASNSVRGNGNYILVLQKDRNVVIYGSDIWSTGTYRRSVGGAVVMAMNGTVDGGSVIGPVVVNQNVTAAIRKVGTGAA",glycan array binding signal (z-score),[1],-0.311
same,glycan array binding signal (z-score),[2],-0.236
same,glycan array binding signal (z-score),[3],-0.14
same,glycan array binding signal (z-score),[4],-0.24
same,glycan array binding signal (z-score),[5],-0.279
same,glycan array binding signal (z-score),[6],-0.234
same,glycan array binding signal (z-score),[7],-0.269
same,glycan array binding signal (z-score),[8],-0.289
same,glycan array binding signal (z-score),[9],5.39
same,glycan array binding signal (z-score),[10],0.496
same,glycan array binding signal (z-score),[11],-0.307
same,glycan array binding signal (z-score),[12],-0.232
same,glycan array binding signal (z-score),[13],-0.245
same,glycan array binding signal (z-score),[14],-0.185
same,glycan array binding signal (z-score),[15],-0.223
same,glycan array binding signal (z-score),[16],-0.194
same,glycan array binding signal (z-score),[17],-0.177
same,glycan array binding signal (z-score),[18],-0.273
same,glycan array binding signal (z-score),[19],0.214
same,glycan array binding signal (z-score),[20],-0.156
same,glycan array binding signal (z-score),[21],-0.277
same,glycan array binding signal (z-score),[22],3.58
same,glycan array binding signal (z-score),[23],2.58
same,glycan array binding signal (z-score),[24],-0.248
same,glycan array binding signal (z-score),[25],-0.202
same,glycan array binding signal (z-score),[26],-0.289
same,glycan array binding signal (z-score),[27],-0.213
same,glycan array binding signal (z-score),[28],-0.252
same,glycan array binding signal (z-score),[29],-0.283
same,glycan array binding signal (z-score),[30],-0.3
same,glycan array binding signal (z-score),[31],-0.049
same,glycan array binding signal (z-score),[32],-0.255
same,glycan array binding signal (z-score),[33],-0.285
same,glycan array binding signal (z-score),[34],-0.304
same,glycan array binding signal (z-score),[35],-0.273
same,glycan array binding signal (z-score),[36],-0.3
same,glycan array binding signal (z-score),[37],-0.249
same,glycan array binding signal (z-score),[38],-0.276
same,glycan array binding signal (z-score),[39],-0.247
same,glycan array binding signal (z-score),[40],-0.233
same,glycan array binding signal (z-score),[41],-0.252
same,glycan array binding signal (z-score),[42],-0.262
same,glycan array binding signal (z-score),[43],-0.217
same,glycan array binding signal (z-score),[44],-0.219
same,glycan array binding signal (z-score),[45],-0.247
